The full ranking holds about 13,000 compounds; the median of “IFI” is about 4, and the highest 2% start at about 17. Some of the results follow.
Test: GSK_TCMDC: Inhibition Frequency Index (IFI). The number of non-kinase HTS assays where a compound showed > 50 % inhibition, expressed as a percentage of the number of such assays in which the compound was tested (-0 is zero)
Format: functional

SMILES | IFI
COc1ccc(CN2CCCN(Cc3cccc(C(=O)Nc4ccc(C)c(F)c4)c3)CC2)cc1 | 6.47%
Cc1ccc(NC(=O)N2CCC(n3c(-c4ccccc4)nc4cccnc43)CC2)cc1F | 2.38%
CN(C)CCCNc1ncnc2c1[nH]c1ccc(F)cc12 | 2.14%
O=S(=O)(ON=C1CCc2ccccc21)c1ccc(Cl)cc1 | 1%
O=S(=O)(NCCN1CCCC1)c1ccc(-c2cccc(CNCc3ccc(F)cc3)c2)cc1F | 11.4%
CCOCCCn1c(=N)c(C(=O)NCc2ccc(OC)cc2)cc2c(=O)n3cccc(C)c3nc21 | 4.3%
Cc1ccc2c(=NN=CC=Cc3ccccc3)cc(C)[nH]c2c1 | 1.52%
CCCCn1c(Sc2ccc(C#N)c([N+](=O)[O-])c2)nnc1-c1cccc(Cl)c1 | 5.63%
Cc1ccc2c(c1C)NC(=O)C21NN=C(c2ccccc2)S1 (stereo unspecified) | 10.1%
CC(=O)Nc1cccc(C(=O)Nc2cccc(-c3csc(-c4nc5ccccc5[nH]4)c3)c2)c1 | 5.5%
CN1CCCN(Cc2ccc(-c3ccc(NC(=O)c4ccc(C#N)cc4)cc3)cc2)CC1 | 3.09%
c1ccc(COc2ccnc(NCCCOc3cccc(CN4CCCCC4)c3)c2)cc1 | 5.59%
COc1ccc2nccc([C@@H](O)CN3CCC(NCc4cnc5c(c4)NC(=O)CS5)CC3)c2c1 | 2.17%
CCOC(=O)c1c(C)n(-c2ccccc2)c2ccc(O)cc12 | 2.99%
O=C(OCC1CCN(Cc2ccccc2)C1)c1ccc(Cl)cc1 (stereo unspecified) | 0.73%
CN1CCN(Cc2cccc(Nc3nccc(Nc4ccc(Oc5ccccc5)cc4)n3)c2)CC1 | 3.01%
CCOC(=O)c1cc(Cl)cc(Cl)c1OCCCON1C(=N)N=C(N)NC1(C)C | 4.48%
Cc1cc(=NN=Cc2ccccc2)c2cc(C(F)(F)F)ccc2[nH]1 | 6.61%
Cc1cccc(Nc2nccc(NCC(O)c3ccc(C(F)(F)F)cc3)n2)c1 (stereo unspecified) | 12%
Cc1noc(C)c1-c1ccc2c(Nc3ccccc3C(C)(C)C)c(C(=O)NCc3ccc(OC(C)C)cc3)cnc2c1 | -0%
N#Cc1cccc(NC(=O)Nc2ccc(-c3ccc(-c4nc5cc(C(F)(F)F)ccc5[nH]4)cc3)cc2)c1 | 5%
OC(c1ccc2ccccc2c1)C1CN(CCc2ccccc2)CCC1(O)c1ccccc1 (stereo unspecified) | 0.76%
CN1CCCN(Cc2cccc(-c3ccc(NS(=O)(=O)c4cccc5cccnc45)cc3)c2)CC1 | 13%
CC(=O)Nc1nc(C(=O)Nc2cccc(-c3ccc4c(cnn4CC4CC4)c3)c2)cs1 | 3%
CCCN(CCC)CCCNc1ccc(C(=O)Nc2ccc(OCC)cc2)cc1[N+](=O)[O-] | 2.92%
COc1cc(C=NNc2ccnc3cc(Cl)ccc23)ccc1O | 7.97%

From ChEMBL document CHEMBL1157539, “Thousands of chemical starting points for antimalarial lead identification” (Nature, 2010)
